The results in this text go back to publication PMC5268361.

Sequences of proteins named here, by UniProt entry; tags and fusion partners are left off. A change or cut given only in a name is not applied to a line headed by its entry.
UniProt Q9ULZ3: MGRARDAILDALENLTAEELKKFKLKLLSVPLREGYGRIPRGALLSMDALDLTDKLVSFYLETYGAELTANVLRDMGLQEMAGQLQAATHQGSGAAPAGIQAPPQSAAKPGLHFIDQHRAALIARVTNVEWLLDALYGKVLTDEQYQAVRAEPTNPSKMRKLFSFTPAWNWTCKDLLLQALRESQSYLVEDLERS

Experiment [1] addresses mammalian GST-GRA7 fusion (wild type) (Toxoplasma gondii) (UniProt O00933). Description: pull-down; 293T cells co-transfected (48 hr) with mammalian GST-GRA7 constructs and V5-ASC or AU1-PLD1 constructs; GST pulldown, IB with αV5 or αAU1.
The target in experiment [2] is mammalian GST-GRA7-I (N-terminal I-domain, aa26-80) (Toxoplasma gondii) (UniProt O00933). The description is as above.
Experiment [3] addresses mammalian GST-GRA7-I S52A (Toxoplasma gondii) (UniProt O00933). The description is as above.
Experiment [4] addresses bacterially purified 6xHis-GRA7-I (aa 26-80) (Toxoplasma gondii) (UniProt O00933). Kind of experiment: co-IP; BMDMs from PKCα+/+ and PKCα-/- mice stimulated with rGRA7-I or rGRA7-III and their mutants for 18 h, subcellularly fractionated, co-IP with αHis, IB with αASC, αPLD1, αPKCα; only the target purified.
The target of experiment [5] is T1, PLD1, endogenous in mouse bone marrow-derived macrophages (mouse (endogenous in BMDMs)) (UniProt Q9Z280).
T1 sequence: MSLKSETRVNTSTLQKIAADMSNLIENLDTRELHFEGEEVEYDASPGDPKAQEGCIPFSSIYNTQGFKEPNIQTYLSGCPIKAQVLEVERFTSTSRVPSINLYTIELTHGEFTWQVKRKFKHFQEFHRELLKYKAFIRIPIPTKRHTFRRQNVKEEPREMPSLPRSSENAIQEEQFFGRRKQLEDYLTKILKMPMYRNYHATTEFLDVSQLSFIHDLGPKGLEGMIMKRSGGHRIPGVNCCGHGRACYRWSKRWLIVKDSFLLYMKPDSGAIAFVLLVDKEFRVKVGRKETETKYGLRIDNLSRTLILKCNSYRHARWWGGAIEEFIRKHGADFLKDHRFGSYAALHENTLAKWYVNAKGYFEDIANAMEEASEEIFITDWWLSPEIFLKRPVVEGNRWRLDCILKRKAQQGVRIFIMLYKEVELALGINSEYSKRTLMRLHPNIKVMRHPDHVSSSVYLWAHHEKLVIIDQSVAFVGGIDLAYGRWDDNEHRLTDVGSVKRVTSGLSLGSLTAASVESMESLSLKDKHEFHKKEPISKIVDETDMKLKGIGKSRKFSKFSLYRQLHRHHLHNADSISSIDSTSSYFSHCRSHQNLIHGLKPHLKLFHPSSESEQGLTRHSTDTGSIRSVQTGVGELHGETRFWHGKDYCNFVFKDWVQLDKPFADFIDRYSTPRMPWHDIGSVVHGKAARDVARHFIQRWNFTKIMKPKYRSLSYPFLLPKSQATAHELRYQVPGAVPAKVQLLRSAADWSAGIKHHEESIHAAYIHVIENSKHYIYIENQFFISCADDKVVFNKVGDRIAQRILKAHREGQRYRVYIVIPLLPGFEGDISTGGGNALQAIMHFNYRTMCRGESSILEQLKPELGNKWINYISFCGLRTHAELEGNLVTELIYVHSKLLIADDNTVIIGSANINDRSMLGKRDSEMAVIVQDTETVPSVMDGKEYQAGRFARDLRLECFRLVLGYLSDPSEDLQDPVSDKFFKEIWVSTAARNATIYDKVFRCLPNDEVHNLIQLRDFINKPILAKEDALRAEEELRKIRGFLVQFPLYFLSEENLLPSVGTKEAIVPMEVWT
Kind of experiment: co-IP; only the binder purified.

Experiment [6] addresses T2, bacterially purified 6xHis-GRA7-III (aa 120-150) (Toxoplasma gondii) (UniProt O00933).
T2 sequence: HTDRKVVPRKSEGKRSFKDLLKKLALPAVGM
Description: co-IP; BMDMs from PKCα+/+ and PKCα-/- mice stimulated with rGRA7-I or rGRA7-III and their mutants for 18 h, subcellularly fractionated, co-IP with αHis, IB with αASC, αPLD1, αPKCα; only the target purified.

In experiment [7] the target is T3, mammalian GST-GRA7-III (N-terminal III-domain, aa120-150) (Toxoplasma gondii) (UniProt O00933).
T3 sequence: T2 sequence
Kind of experiment: pull-down; 293T cells co-transfected (48 hr) with mammalian GST-GRA7 constructs and V5-ASC or AU1-PLD1 constructs; GST pulldown, IB with αV5 or αAU1.

No constants are given. Whether binding was seen depends on the method and setting. In cells and extracts the contact can be indirect. Some entries that bind do so weakly or less than the wild type. For some of these results: Tags and fused reporters may be left off the sequences shown.

On to “V5-tagged ASC N-terminal PYD domain (aa1-91) (from UniProt Q9ULZ3 1-91) (domain or fragment)”, for which the binding entry in experiment [1] was “binds”.
Take “V5-tagged ASC (wild type) (from UniProt Q9ULZ3 1-195)”: the binding result was “binds” in experiment [1], “binds weakly” in experiment [2] and “no binding” in experiment [3].
Consider “AU1-tagged PLD1 PX domain (aa81-212) (from UniProt Q13393 81-212) (domain or fragment)”, for which the binding result in experiment [1] is “binds”.
For “PKCα, endogenous in mouse bone marrow-derived macrophages (from UniProt P20444 1-672) (enzyme)”, in experiment [4], the binding entry is on record as “binds”.

B1: bacterially purified 6xHis-GRA7-III (aa 120-150) (domain or fragment, UniProt O00933 120-150)
chain: T2 sequence
Consider B1, for which the binding result in experiment [5] is on record as “binds”.

B2: PLD1, endogenous in mouse bone marrow-derived macrophages (enzyme, UniProt Q9Z280 1-1074)
chain: T1 sequence
B2: in experiment [6], the binding entry is “binds”.

B3: AU1-tagged PLD1 (wild type) (enzyme, UniProt Q13393 1-1074)
chain: MSLKNEPRVNTSALQKIAADMSNIIENLDTRELHFEGEEVDYDVSPSDPKIQEVYIPFSAIYNTQGFKEPNIQTYLSGCPIKAQVLEVERFTSTTRVPSINLYTIELTHGEFKWQVKRKFKHFQEFHRELLKYKAFIRIPIPTRRHTFRRQNVREEPREMPSLPRSSENMIREEQFLGRRKQLEDYLTKILKMPMYRNYHATTEFLDISQLSFIHDLGPKGIEGMIMKRSGGHRIPGLNCCGQGRACYRWSKRWLIVKDSFLLYMKPDSGAIAFVLLVDKEFKIKVGKKETETKYGIRIDNLSRTLILKCNSYRHARWWGGAIEEFIQKHGTNFLKDHRFGSYAAIQENALAKWYVNAKGYFEDVANAMEEANEEIFITDWWLSPEIFLKRPVVEGNRWRLDCILKRKAQQGVRIFIMLYKEVELALGINSEYTKRTLMRLHPNIKVMRHPDHVSSTVYLWAHHEKLVIIDQSVAFVGGIDLAYGRWDDNEHRLTDVGSVKRVTSGPSLGSLPPAAMESMESLRLKDKNEPVQNLPIQKSIDDVDSKLKGIGKPRKFSKFSLYKQLHRHHLHDADSISSIDSTSSYFNHYRSHHNLIHGLKPHFKLFHPSSESEQGLTRPHADTGSIRSLQTGVGELHGETRFWHGKDYCNFVFKDWVQLDKPFADFIDRYSTPRMPWHDIASAVHGKAARDVARHFIQRWNFTKIMKSKYRSLSYPFLLPKSQTTAHELRYQVPGSVHANVQLLRSAADWSAGIKYHEESIHAAYVHVIENSRHYIYIENQFFISCADDKVVFNKIGDAIAQRILKAHRENQKYRVYVVIPLLPGFEGDISTGGGNALQAIMHFNYRTMCRGENSILGQLKAELGNQWINYISFCGLRTHAELEGNLVTELIYVHSKLLIADDNTVIIGSANINDRSMLGKRDSEMAVIVQDTETVPSVMDGKEYQAGRFARGLRLQCFRVVLGYLDDPSEDIQDPVSDKFFKEVWVSTAARNATIYDKVFRCLPNDEVHNLIQLRDFINKPVLAKEDPIRAEEELKKIRGFLVQFPFYFLSEESLLPSVGTKEAIVPMEVWT
As for B3, the binding result in experiment [1] and in experiment [7] was “binds” throughout.
